From publication PMC3249379 (Frontiers in Molecular Neuroscience, 2011)

Target: the molecule itself
Assay: SEC

B1: GluA2-Q (Q/R unedited version of the GluA2 flop AMPA receptor subunit), homotetrameric receptor (receptor)
chain: not shown
stoichiometry N: 4
